Assay [1] deals with MCF7 human breast carcinoma cells. The assay is described as follows: Cell viability / proliferation assay (CELLTITER-GLO, dose matrix) in MCF7 cells. In kind it is cell-based. As to the method: FIG. 1 is a series of graphs showing the effect of the combination of COMPOUND A with ANTIBODY A on MCF7 cell proliferation under the presence of IGF-1 (100 ng/ml). Briefly, MCF7 cells were treated in 384-well format for 5 days with COMPOUND A and ANTIBODY A in the presence of 100 ng/ml of IGF1 in SD medium. […] Each data point represents averaged data from 3 wells+standard deviation, and the color spectrum also represents the level of the inhibition. A red rectangle highlights the region where the combination is more efficacious than the single agents the same dose.
COMPOUND A (10 mM), stored in aliquots at −20° C. ANTIBODY A (0.2 mM in 1% BSA), stored in aliquots at 4° C. Insulin-like Growth Factor-1 (IGF-1; BD BioSciences, #40037) was utilized at 100 ng/mL.
MCF7 human breast carcinoma cells were stably transfected by a none insert control vector, also named MCF7/3(1). Unless otherwise mentioned, all MCF7 cell culture reagents were obtained from Invitrogen (Grand Island, N.Y. 14072USA). […]
Cell viability was determined by measuring cellular ATP content using the CELLTITER-GLO (CTG) luminescent cell viability assay (Promega). […] An equal volume of the CTG reagents was added to each well at the end of the compound treatment and luminescence was recorded on an ENVISION plate reader (Perkin Elmer). Reduced and enhanched luminescent signal values (responses) were calculated relative to untreated (control) cells.
To evaluate the anti-proliferative activity of COMPOUND A with ANTIBODY A in a non-bias way, as well as to identify synergistic effect at all possible concentrations, the studies were conducted with a “dose matrix.” This utilized different permutations of serially-diluted single agents: COMPOUND A, and ANTIBODY A. In combination assay, agents were applied simultaneously and were assessed in the presence and absence of IGF-1. […]
The synergistic interaction (analyzed using Chalice software [CombinatoRx, Cambridge Mass.]) was calculated by comparing the response from a combination to the response of the agent acting alone, against the drug-with-itself dose-additive reference model. […]

The next assay deals with MCF7 xenograft. As to the kind of experiment: MCF7 xenograft in mice, tumor volume. Format: in vivo. As to the method:
MCF-7 cells (purchased from American Type Culture Collection (ATCC)) were tested free of mycoplasma and viral contamination in the IMPACT VIII PCR assay panel (RADIL, MU Research Animal Diagnostic Laboratory, Columbia, Mo.). MCF-7 cells were cultured in EMEM medium (ATCC#30-2003) containing 10% heat-inactivated fetal bovine serum. Mice were implanted with 17b-estradiol pellets, 0.18 mg/pellet, 90-day release (Innovative research of America Catalog #NE-121), between the shoulder blades three days before the cell implant.
Treatment started on day 21 and concluded by day 59. Tumor volume of each group was measured. The effect of COMPOUND A and ANTIBODY A, as monotherapy and combination, was assessed by comparing: • (a) the percent change between Day 1 and endpoint day in the mean tumor volume of the treated group (T) and the control group (C) (herein referred to as “T/C”), and • (b) the percent change between Day 1 and the endpoint day in the mean tumor volume of the treated group compared to its initial volume (herein referred to as “T/T0”).

The text below walks through data of US8980259B2, “Combination therapy” (Novartis AG, priority 2012, dated 2015).

B1: ANTIBODY A: fully human IGF1R inhibitory antibody; heavy chain SEQ ID NO:1, light chain SEQ ID NO:2; disclosed in U.S. Pat. No. 7,871,611 (antibody)
heavy: QVQLQESGPGLVKPSGTLSLTCAVSGGSISSSNWWSWVRQPPGKGLEWIGEIYHSGSTNYNPSLKSRVTISVDKSKNQFSLKLSSVTAADTAVYYCARWTGRTDAFDIWGQGTMVTVSS[human IgG1 constant region left out]
light: [about 100 residues left out]THWPLTFGQGTKVEIKRTVAAPSVFIFPPSDEQLKSGTASVVCLLNNFYPREAKVQWKVDNALQSGNSQESVTEQDSKDSTYSLSSTLTLSKADYEKHKVYACEVTHQGLSSPVTKSFNRGEC
modifications: Synthetic antibody A heavy chain; Synthetic antibody A light chain
B1: the “MCF7 growth inhibition in vitro (summary in words)” value in assay [1] (MCF7, Experiment 1 summary) was “modest inhibitory activity”. Moreover, the “anti-proliferative activity (in words)” value in assay [1] (MCF7, single agent, in the absence of IGF1) was “almost totally inactive”. Moreover, the “inhibition of cell proliferation” value in assay [1] (MCF7, single agent, in the presence of IGF1 (100 ng/ml), SD medium, 120 hours, CTG) is given as 10-20%. In addition, the “tumor outcome in MCF7 xenograft (summary in words)” value in the assay on MCF7 xenograft (MCF7 xenograft in mice, Experiment 2 summary) is reported as “marginal growth inhibition”. Moreover, the “T/C (percent change in mean tumor volume, treated vs control group)” value in the assay with MCF7 xenograft (MCF7 xenograft mice, COMPOUND A 30 mg/kg qd po, ANTIBODY A 12 mg/kg q2w ip, treatment day 21 to day 59) amounted to 48%.
